Source: the supplement of paper PMC10681739
± gives the standard deviation of the averaged measurements. The full ranking holds about 4,000 sequences; the median of “arbitrary fluorescence units” is about 830, and the highest 2% start at about 6,500. The list lacks most of the strong results.

Target: RUNX1 (UniProt Q01196)
Experiment: RUNX1 binding intensity (PBM fluorescence), RUNX1 alone (arbitrary fluorescence units); higher = stronger binding
Conditions: RUNX1 concentration 2 nM; ETS1 concentration 0 nM
Experimental: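 gcPBM on 36-bp genomic-derived probes (partner site mutated) containing one RUNX1 site and no ETS1 site. Recombinant human RUNX1 (2 nM) was incubated alone or with ETS1 (25 nM) and detected by anti-RUNX1 antibody fluorescence. Values are medians over 4 replicate spots (not normalised). The probes sit in constant array flanks that are not printed.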
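Also: Full-length recombinant human RUNX1 bound to double-stranded DNA microarray spots, detected with an Alexa488-labelled secondary antibody after the anti-RUNX1 primary, read as scanned spot fluorescence.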

UniProt Q01196, sequence (Q01196 whole entry): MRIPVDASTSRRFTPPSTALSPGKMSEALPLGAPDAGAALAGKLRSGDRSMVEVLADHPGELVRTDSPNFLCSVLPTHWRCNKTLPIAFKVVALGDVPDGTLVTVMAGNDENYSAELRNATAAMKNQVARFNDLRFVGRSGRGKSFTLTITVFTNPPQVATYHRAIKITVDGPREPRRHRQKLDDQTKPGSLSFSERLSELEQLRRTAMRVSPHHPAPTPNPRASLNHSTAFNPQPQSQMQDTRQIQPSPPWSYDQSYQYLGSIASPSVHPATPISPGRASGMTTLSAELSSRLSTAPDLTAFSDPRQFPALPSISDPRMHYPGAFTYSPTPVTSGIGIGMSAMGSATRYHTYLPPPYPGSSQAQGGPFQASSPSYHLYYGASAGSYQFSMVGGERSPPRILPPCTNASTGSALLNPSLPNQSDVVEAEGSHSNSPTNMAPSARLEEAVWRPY

Row | Sequence | RUNX1 binding intensity
1 | AGGTCTCCGAAAGTGGGTCTGCGGCGCGCGGGATGC | 653
2 | GCGTGGGGCCGCAGAGCGAGTCGGGAGACGATTTTA | 736
3 | GACTTTTACGGAGATAGCAGTCCAAAACCGCGTCTA | 867
4 | AAGCTCCCTGGCCCTTTAAAAATGGCGGTTCCGCAC | 825
5 | CGAGCCGCAGTTTTACGCAGACACACTCCCGGCGCT | 759
6 | TGCATGCAACAGGCAGTGGGGTGTGGTTTGTTCTGG | 806
7 | GCCGTGAGAAACAACCTGCCTAACCACCTGACTACA | 1030
8 | CAGTCGCCAGAAACCACAGCACTTCGGCCTGCTTCA | 1480
9 | AAAGCAAACATGAAGTGCTGTGGTAACAAGGCCCCA | 776
10 | CGTCTCCTCGCGGGCCGGCGCACCGCGCGGTCACTT | 1110
11 | TTTTCTCTAAACCACATGAAAACAGGCAATGAGCCT | 1350
12 | CACTGATAACCACCTCTCTACACTGCTCGTCTTGAT | 1500
13 | CCTCCCGAACGGCGCGGGGGATTGTGGGGTGTAGGG | 960
14 | GACAACCCCATCATGCGCTCGCCCGCGGTGTCTCGG | 780
15 | GTGGCTCCCTGCCATTGACAATTGCGGGATGGCTTT | 781
16 | AGTGCGGTTTCTGGTGAGGGCCCTCTTGCTGGCTTG | 2910
17 | GAGAGGAGCGCGGTCACTGCTTCGTTCCACCCTCGC | 836
18 | CCGGTCGCTGAGTGGTTGAGGCCGTAAGACAACGCT | 870
19 | CTCGGCGAACCCGCGGGAGGCGGCACCATTGCACCG | 820
20 | AACCTCCGAGGGAACTAACTGGTTTTAACCACATTG | 749
21 | AGGGACGCAGCAAGTGACTGCGGGAGTGGAGCCGGC | 673
22 | GGGGCGCACACTGCCGCAAAGCGGAGGTGTGGCGCT | 721
23 | TTCAACAGGGTGTGGGAACTTGACTCTCGCCGCAAA | 936
24 | AAGTGCAGACACCACACACCCCACAGGCAGTCAAGT | 834
25 | GAGGGAAGGGAACCCGCGCCGCCGGCAGGAGCCGCT | 747

Row | Sequence | RUNX1 binding intensity
26 | CGGTGCAATGGTGCCGCCTCCCGCGGGTTCGCCGAG | 719
27 | CTCCTCACCACACTGCTGCTGCCAGCAAGTGGGGGA | 893
28 | AGCCAGGCAATCCGCACCTACACAGCCCAACCACAG | 1040
29 | TGCAGCCTATCTCCTCTAACCCGCAGATCCACTATG | 1270
30 | AGCCAGCGCGGTGTGGTGGATCGTGATTCCAGCCCG | 642
31 | CTGAGCCACCGCAGCCAGTCTTTTATGCATTCGGCG | 894
32 | GGCGCGCGAGACCCGCAGACAGCGCAACTGGAGCCC | 756
33 | TGGGTACTTGCTGTGACAAATCGAGTTGACCACATG | 727
34 | CAGCTAGAGGAGGCGCTTCGCCCGCGAACCACAGGG | 750
35 | CGCCTGGTGTCCAGTCCCGGGGCCGCAGGGTCCGGC | 682
36 | CCATTGCCTGATTCTAATGTTCATCAACCACTTTTG | 1320
37 | ACTGTGTGTGGTGTTCCATAGAGGACACTGCAAAGC | 787
38 | GGCAAGCTGGTGGTTAAGATTCTCAGGCAGCAAGAC | 835
39 | AGCGGGGAGCAAGATCAGAAGAAAACCCCACAAGTT | 890
40 | GTGTTTTCATGGTGGCCCGGCCGTGCCTGAGGTTTC | 955
41 | CTTGTAGTCAGGTGGTTGGGCAGGGTGTTTCTCATG | 807
42 | GCCTGAAGCCACGCAGGGCCACGTCTGCGGTTCTGA | 918
43 | GCCTTGTGGGCGCTCACTTGCCCCGAAAGTACTGTT | 808
44 | TAAGGCTGTGTGGCTTCCAGATCAAAAACCGCAAAA | 8380
45 | ATGTCATGAAGAGGCTCAGGGCTGTGGTTTCTCTGT | 1030
46 | GCATTTACGGGCACGAAATGAAACCACAGAGTACAA | 1240
47 | CTTGTGGCTCCTTTCCACCCGCCCCGTAAGCCGGCC | 930
48 | CGGGAGCGGCCGCAGTGACGACTCCCGGGATGCTCC | 713
49 | TGCTGCACCGCAGCCCCTTTCTCTTACGGTTCTAGG | 1020
50 | CATAGACCTGATGCCTCGTCAACCACAGAAACCAAT | 1420

Row | Sequence | RUNX1 binding intensity
51 | GCTCCCGTATGTTCTGGGGATCTGCGGCCGCCTGGC | 752
52 | TCTGCGGCCTCCTCCACCCCCACACCTCCTCTCTGC | 1200
53 | TTCCAAACCTCAACCTGCAGCCTGAATGGGGGAGTG | 1000
54 | TGCGCGGCCGCGGTCCGCCCTCTCTTCTGGAGGGCG | 745 ± 24
55 | AAGGTCGCGGTCTCGGCTTCCCTGGAACTTTTTGCT | 929
56 | GTTCAGCAGGCAGTGGATGTGGATGTGTGGTTGCCA | 777
57 | GTCACCGCGCTCCGCTGAATCCGCGTTGCCGGGATT | 841
58 | TTCCAGACCACAAGAGCTTCCACCTCCTTTCTCTTG | 3320
59 | CCTCAGCCTGAGTCTGAGAGCTGCAGCCCGCACAGA | 745
60 | GGCACAGGCCGCAGGGCTGAGCCTGAAGCTCCTGCC | 685
61 | TTGGTGACCTCTTCATGTCCGCTGTGGTGTTGTTAC | 794
62 | ACTACAACTGCCGACTTGCATCACTGCGGTGGCGCT | 923
63 | TCCGCTTCTGTGGTCTGATCTTGCTGGGGCTGAACC | 1090
64 | CCCTGCCATTGCCTGCCCAATACCGCGTATGCAACT | 1120
65 | TGCGCTCTCATACGGGTCCTGCGGGCGCTGGCGGAG | 684
66 | GCCCACCCCCGCATTCTCGCCACCTCCTCCCCGGGA | 1400
67 | TGCGCCTGAAAGCAACGGCAAGGGCCGCAGCCAGCA | 701
68 | TTCTGAGGAGGTCCTTGGCTGAGGTAGGGCCGCAGA | 694
69 | GAGTACAGCAAATGCAAAGTAAAACCACAGTGAGAT | 933
70 | TTCAACAAGATATTGCTTTGTTACCACAGGCCCTTT | 903
71 | TGTGACCGCATCATGGGTAGACTCAATTCCTCTTGT | 1890
72 | AATTAAATTGTGGTAGATAGTAAAAGGACGTAGTTA | 943
73 | AGGAGTGAGGAATTGAGGCTGGCCTTGTGGGTGTGG | 721
74 | CTGAGCCGCAGACATGAAACCATGGATTCCTTCACA | 839
75 | ACATGAGGAGGGGGTAAGTGGATTTCCCTACCACAA | 967

Row | Sequence | RUNX1 binding intensity
76 | GGCCCCGAGCGCGCCGCAGACCGGAGGCGGGGAGTG | 3840
77 | ACTGCTTCTTGTGGTGAGGGACAGTAAACCAAGAGG | 1050
78 | TTTAAGGGCTGAAAGGCTTTAGCCGCAAAATGGCTT | 742
79 | AAGAGCATGCACCCGCAGAGACAGGCAGTGGCGGCT | 816
80 | CAGAAAGAGGACATGATGCGAGTCCACACCGCAGGC | 755
81 | GAACTACGTTTGCCGGCATGCACTGCGGGCCGCCGG | 676
82 | CCAACACGGAGACAAAAAATATCTCTCTACCACACT | 1120
83 | CTCCCAACTGCCGCGACGCAGGGAGCGCCCACAAAG | 999
84 | CGTCAATTCCCACGCGACTGCCTGCGGGAAACATGG | 826
85 | ACTGTGGTCAGGGCTGCCCTGAGTCATGCTGCGGAG | 1080
86 | GCTTGTCTTACGGTTTCGTCGCCGCCGCAGGCGCAC | 854
87 | TGCAACGCTGGAATCGCGCAAACCGCCGGTGCACGT | 689
88 | GTGAGCTGTGGTGTGCAGCCCACCATCTCCTTTTCT | 810
89 | CCGCCACCGCAGCCTCAGCAGCAGTTGCCGTAAGAA | 1480
90 | TCAATGACAGCAAGTTTTTAAACCACATACGGCTAA | 914
91 | ATCGGCGGTCCCGCAGGTCCCGTATGTCGCGGACAG | 713
92 | CCTGCCTTGCGTATTCCAGGCAGAACCACAGAGAGG | 864
93 | GCGGACCGCACTCCCGGTCTCTGCCATGAAGAAGTA | 1000
94 | AGGGGCAGACCACAGCACCACCGAAAGTAGGGCTCA | 771
95 | TGGGGCCTTGTTACCACAGCACTTCATGTTTGCTTT | 928
96 | GTGGGGCAGGGTGTGCTTGCCTGGCTGCGGTTGGAC | 971
97 | ATCAGAGCGGAGATCTCAGTCTTGTGTGGGGACCTG | 710
98 | ACCGTTAACTCAACCACTAACATTTGCTGTTCTGGT | 1070
99 | GGACACATGTGGTGTTCTGCATGATGCAAAAGACCT | 682
100 | CCCCCGTACGGTTACAGAGGACACTTAAGTGGTTTG | 800

Row | Sequence | RUNX1 binding intensity
101 | CGTTTACTGTGGCTGCAGCTCTCCCCACCCACACAC | 979
102 | CGACGTCACTTTCGCTGGTTCAAGCACCGCGAGACT | 656
103 | GCCAACATGAAGCTGGAAGCCAACCGCACTGTGTGC | 1070
104 | CGTCCTGTCTGTGGCCTAGAAGCTTGCTGCCCCAGC | 882
105 | AGCGGCTTGCTGCTGGGCTTTTGCACTCCCCACAAC | 767
106 | GGGCTGGCTGCTGCGGCAGCATTTCTTGACTTCTTC | 679
107 | AGGTTAAGTGTGGTTTCTCTTCATGATTCCACCCTG | 1080
108 | CTCCCCAGCCGCAAACCCCTCCTTACGGCTTTGCGC | 1690
109 | TTTGCGGCGCTAGTGCTCTGGTCACCGAAAGTCCCT | 724
110 | AGGCCGCCTACAGGGTGTTGGAAACCACAGGGCCCG | 802
111 | GGGGAACTCACCGCGCACTAAGAGCTGAACGTGAAC | 699
112 | GGCTGCGGCGGCTGGGGTGTTCCTCCGACTTTCGGA | 881
113 | TTGTGGTTGAGTTCCCTAGCTGACACCTCCTATATT | 971
114 | GACAAGAAACTAGCCACAAACCGGAGACGTTAAACC | 1050
115 | CTCCCCAGCATGAGGGTCCCAGGGCTTACCCGCGCC | 790
116 | GGAGGCTGTGGTGAGGAAAGAGGAGGTGACACTCCT | 883
117 | CAGCCGCCGACGTCCCCAGTAGTACCGCGCCGCTCC | 911
118 | ATAGAAACTACACGAAATACTGTGGTCAGGTTTTGA | 800
119 | CCACTGCTTTGTTGCCTCTCCAGACCGCGCATTTTG | 1010
120 | AGACTAGAGGCGGTTGTGTGAGTCAGAAAGAGGGGC | 724
121 | TCACACCCTGTAATGGTTTGCGCATACCACAGTTCT | 786
122 | AGCTGAGGTCGCGGTGCAGCAGCAGCAAACGTGATA | 1010
123 | AAAGGTGGTTGAGATCTATCCCACACCCTGTCTTTC | 703
124 | CAAGCCAACATGCTGACAGTTTAGAAACCACAGGAG | 848
125 | AGGTTCGTGGCACGAAAGTTTGTGGCAGCAAAGCCT | 864
